The full ranking holds about 33,000 sequences; the median of “E-score (-0.5 to 0.5)” is about -0.04, and the highest 2% start at about 0.36. Some of the results follow.
These sequences were tested against T1, Hmlalpha2 (UniProt P0CY09) (assay: PBM E-score (8-mer binding enrichment) (E-score (-0.5 to 0.5)); higher = stronger / more preferred TF binding; most listed sequences are background and not binding sites). Settings: protein concentration: 200 nM; construct: GST-full length.
T1 sequence: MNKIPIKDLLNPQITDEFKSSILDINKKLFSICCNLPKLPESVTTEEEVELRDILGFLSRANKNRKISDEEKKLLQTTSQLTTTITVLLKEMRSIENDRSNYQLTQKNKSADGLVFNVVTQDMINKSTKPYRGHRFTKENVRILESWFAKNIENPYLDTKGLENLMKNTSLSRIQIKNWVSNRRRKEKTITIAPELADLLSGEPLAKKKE
Procedure, shortened: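 Using PURExpress in vitro transcription/translation, GST-tagged yeast transcription factors were made in full-length or DNA-binding-domain form. These were applied at about 100-200 nM to double-stranded universal all-10-mer Agilent arrays, and bound protein was detected with fluorescent anti-GST. Scans were normalised with masliner before the Universal PBM Analysis Suite assigned E-scores to ungapped eight-base words pooled with their reverse complements.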

| Sequence | PBM E-score |
| --- | --- |
| CTGCGATC | -0.182 |
| AGCTGAGC | -0.16 |
| GGAGGCGA | -0.148 |
| AATCCTTG | 0.103 |
| AACGCCCC | -0.0523 |
| ATCAGAAA | -0.054 |
| ATTCTCAG | -0.0746 |
| AATAGGGC | 0.0131 |
| ACTTTCAT | 0.0115 |
| CAGGTGGA | -0.164 |
| TGTAACAA | 0.384 |
| CGTCTGAC | -0.139 |
| CTAGTGAG | -0.133 |
| ATCTTAAG | -0.218 |
| CTTAACTA | 0.266 |
| GAAAAAGC | -0.145 |
| ACGAAAAG | 0.0451 |
| CAACTGAC | -0.123 |
| GCTCCACA | -0.222 |
| AACACGTT | 0.403 |
| GCAATAGA | -0.157 |
| CTCCTTTA | -0.0707 |
| ATGCTATA | 0.105 |
| AAGAAATA | 0.14 |
| ATCACAAC | 0.167 |

| Sequence | PBM E-score |
| --- | --- |
| AGAGCCTA | -0.095 |
| AGCGCCGA | -0.185 |
| TCTGCAAA | 0.0308 |
| GTACATAC | 0.362 |
| AGAAAGTG | -0.223 |
| ATGAGTAA | 0.0671 |
| ATTGCATC | 0.104 |
| CTTTTCCC | -0.0258 |
| AAAGTAAA | 0.174 |
| CGGTGAAA | 0.0361 |
| AAGAAGAT | -0.0289 |
| GGGGCACC | -0.263 |
| ATACAATG | 0.171 |
| AATGGGAA | -0.194 |
| AACATGGC | 0.406 |
| AAACCTCA | 0.0137 |
| AAACGACC | -0.0775 |
| ATTGTGGC | -0.0619 |
| GCATGAGC | -0.0934 |
| CGTCCAGC | -0.0879 |
| ACACAGGA | 0.284 |
| CCGTAGTC | -0.282 |
| GAGCTGGC | -0.112 |
| GAATGAGC | -0.0545 |
| GAGGACGC | -0.208 |

| Sequence | PBM E-score |
| --- | --- |
| AACCCTAG | 0.0776 |
| TGTCGCAA | 0.088 |
| GTCCGATA | -0.161 |
| CACGGACC | -0.0468 |
| AAAACAGC | 0.0366 |
| CACCCCCC | -0.262 |
| CCCCGGTA | -0.255 |
| ACGGAGTC | -0.138 |
| ATATCCGA | -0.0397 |
| AGTATCCG | -0.0438 |
| CCCTGGGC | -0.302 |
| AGGTACTA | 0.102 |
| CAAACTTC | 0.127 |
| CCCCCCCC | -0.403 |
| CCGGGGCC | -0.385 |
| TCGAGACA | -0.0896 |
| ATTCCTGA | -0.0807 |
| AAATGACA | 0.0996 |
| CGCGGAGA | 0.00486 |
| CTGCTACA | 0.207 |
| CCGTGTCA | 0.351 |
| TCGACTAA | 0.0638 |
| AAGGATCG | 0.0461 |
| CAAGGAGC | -0.0695 |
| CCCACAAG | -0.186 |

| Sequence | PBM E-score |
| --- | --- |
| AATTAATG | 0.147 |
| CATGACTA | 0.0356 |
| ACCTATCC | -0.144 |
| ACTTGTGG | -0.0568 |
| CACTTAGC | -0.143 |
| CCTGTTCA | -0.0193 |
| AAATTTTC | -0.233 |
| ATAATAGC | -0.036 |
| CAACGCAC | 0.17 |
| CTAGTCTC | -0.13 |
| TACACGTA | 0.428 |
| AATGAGGT | 0.0115 |
| CGTCATCA | -0.0179 |
| CCCTACAC | 0.247 |
| CTGTGAGC | 0.0267 |
| GGAGGATA | -0.087 |
| ATTTCTGG | 0.0188 |
| ATCTCGAA | -0.0321 |
| AGCAGGCC | -0.0862 |
| AATAGTCA | -0.0249 |
| AACGTCTC | 0.0704 |
| CTACGCTA | -0.0737 |
| ATTTAAGG | -0.144 |
| TGAGGGAA | -0.126 |
| AATCATGG | 0.0457 |

| Sequence | PBM E-score |
| --- | --- |
| ATCTCCGG | -0.202 |
| ATTAATAA | 0.212 |
| AACGAGCA | 0.118 |
| ATCCTATG | -0.116 |
| GCTCCAAA | -0.0984 |
| CATGGTAC | 0.0805 |
| GGATGGGA | -0.134 |
| AGGTCCTA | -0.241 |
| GCTTGGTA | 0.123 |
| AAGAACGA | -0.0521 |
| CTGATCAC | -0.105 |
| CACTTCTA | -0.0114 |
| AAAGGCTG | -0.1 |
| CATCGGGG | -0.209 |
| ACGTCAGG | -0.124 |
| TCGGTACA | 0.154 |
| CGCACTTA | -0.0398 |
| AAAAGCCA | -0.0535 |
| TAGTACAA | 0.244 |
| CCCGCAGG | -0.0462 |
| CCCGTGAG | -0.193 |
| TGATCCCA | -0.134 |
| GCTTTGAA | 0.0448 |
| ATGTAGTC | 0.37 |
| CGGAGTAC | -0.126 |

| Sequence | PBM E-score |
| --- | --- |
| GGTAACCA | -0.00348 |
| CACTACAG | 0.126 |
| CAGATGCC | -0.21 |
| CCATTCAG | -0.187 |
| CGCGGGCC | -0.163 |
| GACGGGGA | -0.268 |
| ATTGTGGA | 0.00701 |
| CGTGGAAC | -0.121 |
| ACGTGAAC | 0.116 |
| GATGTTAA | 0.383 |
| AATCAATC | 0.107 |
| CTCCGTTA | -0.0425 |
| ACAGATAA | 0.0265 |
| AGCGTACC | -0.23 |
| TCGCCTCA | -0.118 |
| GTATGCGA | 0.138 |
| CCCGAATC | -0.286 |
| TCCCAGAA | -0.207 |
| TCTCTCCA | -0.206 |
| ACACTGTA | 0.116 |
| CCTTACTA | 0.0121 |
| ATATTCGA | -0.166 |
| ATTATTTA | 0.272 |
| AAGCGCAG | -0.101 |
| ACGTGTAA | 0.482 |

| Sequence | PBM E-score |
| --- | --- |
| CAAGGACC | -0.0531 |
| AGGCGGGG | -0.0978 |
| CATTACCA | 0.0553 |
| ATCCTCCC | -0.258 |
| AAATGCCA | -0.269 |
| CCGTGCAC | -0.176 |
| GGCGCGAC | -0.0499 |
| AGAAAGTA | 0.227 |
| CCTCCCCC | -0.415 |
| GTGCTCAA | 0.197 |
| AGTGCCCC | -0.347 |
| CATCGAGG | -0.124 |
| ACCCACTA | 0.0139 |
| ATCATGAT | 0.202 |
| CGCCATTC | -0.284 |
| ACGTGAAA | 0.216 |
| TAGGGTAA | 0.0367 |
| AAGGCACA | 0.0471 |
| ACGTCAAG | 0.0653 |
| GGTCATAA | -0.0587 |
| CCTACCCC | -0.417 |
| AACAGTGG | -0.0879 |
